The list shows a part of the results.
Key:
Assay in all cases: glycan array binding signal (z-score within array); higher = stronger binding
Conditions in all cases: glycan notation: IUPAC condensed, linker removed
[1] = target: Gal(b1-4)GlcNAc(b1-3)Gal(b1-4)GlcNAc(b1-3)Gal(b1-4)GlcNAc(b1-3)Gal(b1-4)GlcNAc(b1-2)Man(a1-3)[Gal(b1-4)GlcNAc(b1-3)Gal(b1-4)GlcNAc(b1-3)Gal(b1-4)GlcNAc(b1-3)Gal(b1-4)GlcNAc(b1-2)Man(a1-6)]Man(b1-4)GlcNAc(b1-4)[Fuc(a1-6)]GlcNAc
Outline: (§1)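 The binding signal is a Z-score computed within each array. Data were drawn from 3228 arrays in the Consortium for Functional Glycomics database, restricted to those with a known protein sequence. Scores were averaged over arrays of the same protein sequence at different concentrations or buffers, and over linkers, and negative values can be taken as non-binding.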

[2] = target: Gal(b1-4)GlcNAc(b1-3)Gal(b1-4)GlcNAc(b1-3)Gal(b1-4)GlcNAc(b1-3)Gal(b1-4)GlcNAc(b1-2)[Gal(b1-4)GlcNAc(b1-3)Gal(b1-4)GlcNAc(b1-3)Gal(b1-4)GlcNAc(b1-3)Gal(b1-4)GlcNAc(b1-6)]Man(a1-6)[Gal(b1-4)GlcNAc(b1-3)Gal(b1-4)GlcNAc(b1-3)Gal(b1-4)GlcNAc(b1-3)Gal(b1-4)GlcNAc(b1-2)Man(a1-3)]Man(b1-4)GlcNAc(b1-4)[Fuc(a1-6)]GlcNAc
Outline: as §1

[3] = target: Gal(b1-4)GlcNAc(b1-3)Gal(b1-4)GlcNAc(b1-3)Gal(b1-4)GlcNAc(b1-3)Gal(b1-4)GlcNAc(b1-3)Gal(b1-4)GlcNAc(b1-2)Man(a1-3)[Gal(b1-4)GlcNAc(b1-3)Gal(b1-4)GlcNAc(b1-3)Gal(b1-4)GlcNAc(b1-3)Gal(b1-4)GlcNAc(b1-3)Gal(b1-4)GlcNAc(b1-2)Man(a1-6)]Man(b1-4)GlcNAc(b1-4)GlcNAc
Outline: as §1

[4] = target: Gal(b1-4)GlcNAc(b1-3)Gal(b1-4)GlcNAc(b1-3)Gal(b1-4)GlcNAc(b1-3)Gal(b1-4)GlcNAc(b1-3)Gal(b1-4)GlcNAc(b1-2)Man(a1-3)[Gal(b1-4)GlcNAc(b1-3)Gal(b1-4)GlcNAc(b1-3)Gal(b1-4)GlcNAc(b1-3)Gal(b1-4)GlcNAc(b1-3)Gal(b1-4)GlcNAc(b1-2)Man(a1-6)]Man(b1-4)GlcNAc(b1-4)[Fuc(a1-6)]GlcNAc
Outline: as §1

[5] = target: Gal(b1-4)GlcNAc(b1-3)Gal(b1-4)GlcNAc(b1-3)Gal(b1-4)GlcNAc(b1-3)Gal(b1-4)GlcNAc(b1-3)Gal(b1-4)GlcNAc(b1-2)[Gal(b1-4)GlcNAc(b1-3)Gal(b1-4)GlcNAc(b1-3)Gal(b1-4)GlcNAc(b1-3)Gal(b1-4)GlcNAc(b1-3)Gal(b1-4)GlcNAc(b1-6)]Man(a1-6)[Gal(b1-4)GlcNAc(b1-3)Gal(b1-4)GlcNAc(b1-3)Gal(b1-4)GlcNAc(b1-3)Gal(b1-4)GlcNAc(b1-3)Gal(b1-4)GlcNAc(b1-2)Man(a1-3)]Man(b1-4)GlcNAc(b1-4)[Fuc(a1-6)]GlcNAc
Outline: as §1

[6] = target: Gal(b1-4)GlcNAc(b1-3)Gal(b1-4)GlcNAc(b1-3)Gal(b1-4)GlcNAc(b1-3)Gal(b1-4)GlcNAc(b1-3)Gal(b1-4)GlcNAc(b1-3)Gal(b1-4)GlcNAc(b1-2)Man(a1-3)[Gal(b1-4)GlcNAc(b1-3)Gal(b1-4)GlcNAc(b1-3)Gal(b1-4)GlcNAc(b1-3)Gal(b1-4)GlcNAc(b1-3)Gal(b1-4)GlcNAc(b1-3)Gal(b1-4)GlcNAc(b1-2)Man(a1-6)]Man(b1-4)GlcNAc(b1-4)GlcNAc
Outline: as §1

[7] = target: Gal(b1-4)GlcNAc(b1-3)Gal(b1-4)GlcNAc(b1-3)GalNAc
Outline: as §1

[8] = target: Gal(b1-4)GlcNAc(b1-3)Gal(b1-4)GlcNAc(b1-3)[Gal(b1-4)GlcNAc(b1-3)Gal(b1-4)GlcNAc(b1-6)]GalNAc
Outline: as §1

[9] = target: Gal(b1-4)GlcNAc(b1-3)Gal(b1-4)GlcNAc(b1-6)[Gal(b1-3)]GalNAc
Outline: as §1

[10] = target: Gal(b1-4)GlcNAc(b1-3)Gal(b1-4)[Fuc(a1-3)]GlcNAc(b1-3)Gal(b1-4)[Fuc(a1-3)]GlcNAc
Outline: as §1

[11] = target: Gal(b1-4)GlcNAc(b1-3)GalNAc
Outline: as §1

[12] = target: Gal(b1-4)GlcNAc(b1-3)[Fuc(a1-3)GlcNAc(b1-6)]Gal(b1-4)Glc
Outline: as §1

[13] = target: Gal(b1-4)GlcNAc(b1-3)[Gal(b1-4)GlcNAc(b1-6)]Gal(b1-4)GlcNAc
Outline: as §1

[14] = target: Gal(b1-4)GlcNAc(b1-3)[GlcNAc(b1-6)]Gal(b1-4)GlcNAc
Outline: as §1

[15] = target: Gal(b1-4)GlcNAc(b1-6)Gal(b1-4)GlcNAc
Outline: as §1

[16] = target: Gal(b1-4)GlcNAc(b1-6)GalNAc
Outline: as §1

[17] = target: Gal(b1-4)GlcNAc(b1-6)[Gal(b1-3)]GalNAc
Outline: as §1

[18] = target: Gal(b1-4)GlcNAc(b1-6)[Gal(b1-4)GlcNAc(b1-3)]GalNAc
Outline: as §1

[19] = target: Gal(b1-4)GlcNAc6P
Outline: as §1

[20] = target: Gal(b1-6)Gal
Outline: as §1

[21] = target: Gal3S(b1-3)GalNAc
Outline: as §1

[22] = target: Gal3S(b1-3)GlcNAc
Outline: as §1

[23] = target: Gal3S(b1-3)[Fuc(a1-4)]GlcNAc
Outline: as §1

[24] = target: Gal3S(b1-4)Glc
Outline: as §1

[25] = target: Gal3S(b1-4)Glc6S
Outline: as §1

[26] = target: Gal3S(b1-4)GlcNAc
Outline: as §1

[27] = target: Gal3S(b1-4)[Fuc(a1-3)]Glc6S
Outline: as §1

[28] = target: Gal3S(b1-4)[Fuc(a1-3)]GlcNAc
Outline: as §1

[29] = target: Gal3S(b1-4)[Fuc(a1-3)]GlcNAc6S
Outline: as §1

[30] = target: Gal3S4S(b1-4)GlcNAc
Outline: as §1

[31] = target: Gal3S6S(b1-4)GlcNAc
Outline: as §1

[32] = target: Gal3S6S(b1-4)GlcNAc6S
Outline: as §1

[33] = target: Gal4S(b1-4)GlcNAc
Outline: as §1

[34] = target: Gal4S6S(b1-4)GlcNAc
Outline: as §1

[35] = target: Gal6P(b1-4)GlcNAc
Outline: as §1

[36] = target: Gal6S(b1-3)GlcNAc
Outline: as §1

[37] = target: Gal6S(b1-3)GlcNAc6S
Outline: as §1

[38] = target: Gal6S(b1-4)Glc
Outline: as §1

B1: SAOUHSC 00176 (Staphylococcus aureus) (protein)
chain: MSKILKCITLAVVMLLIVTACGPNRSKEDIDKALNKDNSKDKPNQLTMWVDGDKQMAFYKKITDQYTKKTGIKVKLVNIGQNDQLENISLDAPAGKGPDIFFLAHDNTGSAYLQGLAAEIKLSKDELKGFNKQALKAMNYDNKQLALPAIVETTALFYNKKLVKNAPQTLEEVEANAAKLTDSKKKQYGMLFDAKNFYFNYPFLFGNDDYIFKKNGSEYDIHQLGLNSKHVVKNAERLQKWYDKGYLPKAATHDVMIGLFKEGKVGQFVTGPWNINEYQETFGKDLGVTTLPTDGGKPMKPFLGVRGWYLSEYSKHKYWAKDLMLYITSKDTLQKYTDEMSEITGRVDVKSSNPNLKVFEKQARHAEPMPNIPEMRQVWEPMGNASIFISNGKNPKQALDEATNDITQNIKILHPSQNDKKGD
- glycan array binding signal (z-score) [1]: 0.032
- glycan array binding signal (z-score) [2]: -0.068
- glycan array binding signal (z-score) [3]: -0.05
- glycan array binding signal (z-score) [4]: 0.051
- glycan array binding signal (z-score) [5]: 0.091
- glycan array binding signal (z-score) [6]: -0.112
- glycan array binding signal (z-score) [7]: 0.003
- glycan array binding signal (z-score) [8]: 0.087
- glycan array binding signal (z-score) [9]: -0.048
- glycan array binding signal (z-score) [10]: -0.146
- glycan array binding signal (z-score) [11]: -0.132
- glycan array binding signal (z-score) [12]: -0.045
- glycan array binding signal (z-score) [13]: -0.134
- glycan array binding signal (z-score) [14]: 0.01
- glycan array binding signal (z-score) [15]: -0.109
- glycan array binding signal (z-score) [16]: 0.031
- glycan array binding signal (z-score) [17]: 0.017
- glycan array binding signal (z-score) [18]: -0.111
- glycan array binding signal (z-score) [19]: -0.161
- glycan array binding signal (z-score) [20]: -0.04
- glycan array binding signal (z-score) [21]: -0.09
- glycan array binding signal (z-score) [22]: -0.12
- glycan array binding signal (z-score) [23]: -0.071
- glycan array binding signal (z-score) [24]: -0.052
- glycan array binding signal (z-score) [25]: -0.092
- glycan array binding signal (z-score) [26]: -0.048
- glycan array binding signal (z-score) [27]: -0.09
- glycan array binding signal (z-score) [28]: 0.066
- glycan array binding signal (z-score) [29]: 0.008
- glycan array binding signal (z-score) [30]: -0.1
- glycan array binding signal (z-score) [31]: 0.043
- glycan array binding signal (z-score) [32]: -0.079
- glycan array binding signal (z-score) [33]: -0.064
- glycan array binding signal (z-score) [34]: -0.092
- glycan array binding signal (z-score) [35]: -0.136
- glycan array binding signal (z-score) [36]: -0.116
- glycan array binding signal (z-score) [37]: -0.159
- glycan array binding signal (z-score) [38]: -0.105
